Measurements: the supplement of paper PMC12632987
In all, about 2,300 sequences were measured (“median log2 fold change of GCK-ALFA target abundance (FLAG IP / Myc IP barcode read proportion)”: median about 0.095, lowest 2% from about -0.47 on). The list shows a part of the results.

B1: LC3A_28_785 (protein)
chain: SEIEENVEKAIEEAREAKEKGESVVITIKVPGDATEEDIEKVIEALEEIAEILEGVEDQAIIIDVDSDVKPEHIKKLAEKAEEIEEKYPNVTVIIALEEK
B2: LC3A_free_46_2375 (protein)
chain: MRIEIYAYKEGWTEEEAKALAEEIAEAIKKVAEELGVEVEIKTEVVKNADGSYLVKVTVEIKAPTKEKALEAEKAILDTVDKILKERGAAAIISVEEIEE
B3: LC3A_3_1716 (protein)
chain: AEKIKEETLEELRKKGASEETIKAAEELLNELIEKGYLEALKTLLEEVKKMKGISSEILLAMFKDLLHIVKTEDLDEEELIKEIKREFRIAKSENEIEEL
B4: LC3A_3_1432 (protein)
chain: MEELLEEARRVLEEAGFDEETREAVLRLLRLALEAGKEEEARELIEVLKEAKNVDSEKVREAAERALRRIEEEGVPVEEAVREFIDELRVLRLETEIEEL
B5: LC3A_3_1820 (protein)
chain: MEAERAETLAELAAAGASPETLAAVNEAVEALIEKGYYEAAKTLIELMRELKDLPSELLLEFAQEVLELIKTSDLSEEEMTKEIKKIASTVRNEAEIEEL
B6: LC3A_free_8_2538 (protein)
chain: MKEELRKKASEIIDETIEKVEEAGKKLGLDRLDILDLELLLGEALIEIHELDTESIEDVKADVEESLNEAIKLAKELSPEIAKIVEEAKKKVLELLDEME
B7: LC3A_3_1708 (protein)
chain: GEEILKEAKEILEKQGRSEETKKAVLEAIKALLEKGYYEAAKTFVELLKEAENLSDEIVKDFAEDVKAFVESGDKSEEEVIEFIKEEYETAKNEQEIIEL
B8: LC3A_3_1882 (protein)
chain: MEERVKKTIELLKKAGASEETIKAFEETAKLLKERGYEKALETLIEEVEKLKDLSDELLLDFLKEVLKVVKEEDLNEEELIKRIKEIARLTRNEGEIEEL
B9: LC3A_28_1249 (protein)
chain: MEVEKQIEEAKKKVEEAVKKGEEALVTLTVTKDSNEEDVDKIIEAMYEIAELGKDLPSLTIIVDVEKGVPEKHINKLADAGEEIEEKYPNVTVIIALEEE
B10: LC3A_free_46_2299 (protein)
chain: YEGNIDVFIDGLTKEQAEELAKEIREKAKEIAEKYGVELEIDVEIEKNEDGTYSLNINITLRHEDKEVLEKAASEIIDEIDRLASKYNAASIISLEFKEI
B11: LC3A_28_958 (protein)
chain: SALEEELEKALKEAKEAAKKGEPAVITIKVPGDANEEDIEKVIKALYEIAEILKDIKGAAIIVDVDGKVKQEHIDKIADAAEEIEKKYPNVTVILALDEE
B12: LC3A_free_0_2123 (protein)
chain: MLMVVELLIILDPSTSEEKAEKFEKKLKEEAEKLGEKYGAEVEFEVSKVDGSTVITITLRKEGMSLDEALEIADELSDAAEKIAKEEGLDVTIYESVYRE
B13: LC3A_147_400 (protein)
chain: ALVEVDIDVLTNGDEEVIEELVEALRETAEALGARVEVEVELEREEGEIYARIRLRLETSDDPEEIQRLEDALLDTIDEWLEKNKDKVLGALISVSVERR
B14: LC3A_45_1988 (protein)
chain: MYEAVVSLLVPRELAEEALRVVKEAARELEAEYGPDLKVNWERLEETYEATRDEEEVFLEVEITHPDKDVALDAAVELEDRVRERLGDRVASIISYKEVP
B15: LC3A_3_1695 (protein)
chain: MEEVVKETLEVAKKNGWSEETLKALEELLKLLKERGYLEAIKKLLEKLKELKDASSEDMKWMFEELKYKVENENLNEEEITKEIEEEAEVIKKAKEIEEL
B16: LC3A_free_46_2419 (protein)
chain: MTLEIDIDVLAKTEETARAVAERLTATLRAIAERLGVEVEIEVRIEKLEDGTYYLEIRATFTGVTPEQAQQIEDEVVDKVEQLEEEYPEILGSIISSELE
B17: LC3A_132_308 (protein)
chain: GEELAKKLIEIAKEALRLVKEDDSKEEEVLELLREAKELMEKLAKEASPELAAKTFEEVEEILIEISRLAAKKGWDEVSDEAFALAAEAAQLKSDAKKKL
B18: LC3A_28_1322 (protein)
chain: SRVEEELARAEAAADAAAARGEDILLEVEISGDTTLEEAERLMERLEEIAARYAPERKVSIVINLDGDVKQEVIDLIAERAEEIEERYPNVTVILALDEE
B19: LC3A_132_284 (protein)
chain: DKELKEKRIKKVKEIAEKAKKAADDPEKTKKLLEEMKKYLEEVEKTESPEVQAAVFDEAAKEYDKLADLLDSKGKEDLALEADSLSIEAASRSIRAEKKI

What follows are binders tested against MAP1LC3A, Q9H492 (assay: median log2 fold change of GCK-ALFA target abundance (FLAG IP / Myc IP barcode read proportion) (log2 ratio); each designed protein is fused to an ALFA-tag nanobody in HEK293 cells to bring the named protein to FLAG-tagged glucokinase (GCK); Myc marks an untargeted standard; higher = target protein stabilised (more abundant)). Conditions: target protein: 3xFLAG-MCP-GCK-ALFA reporter; HEK293 landing pad (RPLP).
Summary of the method: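 An ALFA-nanobody-fused binder library was recombined into HEK293 landing-pad cells and induced with 2 μg mL^−1 doxycycline. Cells were transfected with a plasmid expressing a FLAG-tagged target and a Myc-tagged standard. After 48 h, lysates underwent anti-FLAG and anti-Myc immunoprecipitation, and circular RNA barcodes were reverse transcribed, amplified and sequenced. Target abundance is the per-binder median log2 ratio of FLAG to Myc barcode read proportions. Barcodes needed ≥10^−7 proportion in both replicates, binders ≥3 barcodes per replicate, and a 10^−6 pseudocount was added; the two replicates were pooled.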

Binder	median log2 fold change
B1	0.0676
B2	-0.0699
B3	0.281
B4	0.493
B5	0.287
B6	0.0891
B7	0.187
B8	0.45
B9	0.172
B10	0.137
B11	-0.00119
B12	-0.348
B13	-0.235
B14	0.0685
B15	0.503
B16	0.113
B17	0.14
B18	0.192
B19	0.18
